Experimental findings from the supplement of paper PMC12632987 are described below.

The labels stand for the following.
B1: GBRAP_186_5380 (protein)
chain: REELEEREDKIIDELEAQGYTVIVVYLEGLSLEETKKAMERDADAVAALSKETGKKWALVVRIITKAEDVEELEKYAKELNEKYLAESGVVVRAAIESSD
B2: GBRAP_78_6676 (protein)
chain: KVEEELDKAAEHLSEAAKILNKMNTEEALDILGKVIDVLQTVVEAQFGEADLEDLEEALKTAEEALKEVKKIDTEEAKEAAKHLEKAIEHLKKAIELLKK
B3: GBRAP_52_6086 (protein)
chain: MEERLEALAREIAAAVAAGDREGALALIEEAIKELSVEEIRRLLRLAAERVAALGEDAHVLFVDLLDEAEDLMIKAGISEEDALLIVGDAEAALAKAVAA
B4: GBRAP_52_6187 (protein)
chain: MREELRRRVEEMLELVKAGREEEARELARRLVEELSEEELRLLVEVLAEVAAAAPLEDADAVMRLAEILAEAIEEAGKDEVLAEDLLAAAARALHAKELA
B5: GBRAP_74_6529 (protein)
chain: EEEALKKVKEAAEKGDLKGAIKILEENVDKLSPEKLVEALLIVLKLFEKQKETATDEEVDAVIDLIVKVESKVDDLLFPDETLKLIAEALALAVEREKAE
B6: GBRAP_184_5353 (protein)
chain: MVREVLIEAATVEEAIAQLRAAGAAAAAAGASLNVHISVPINTVAEAEALMAALAALAAAGVLPNVVGIDDVANDDAIIDTIVNGADAAGVRVVLGIEGE
B7: GBRAP_45_5799 (protein)
chain: SEEIEEALKKALEELNKAKELVEKTKWSNEETKKKVLEILNKIIKLLTENPYSLEAAEEAAKLAREALKLLLDDPDATAEAIEATLNALNYIEDLAELLK
B8: GBRAP_128_3367 (protein)
chain: LNEELLKKIRELVEEMIKSSVEETAKLMEEIVELINTMSKEEQEAAVEIILESLPKFSEEKLETIADVIRKNRSKLNPYTQNLLAEVEVEALNLAEEQRE
B9: GBRAP_117_2588 (protein)
chain: DPLLEAARARVQALADRVREALERMKTLSPEERKALYEELLRETEELLRELLSELDEETVDEIIDEVLAELDAETYFLFESLLAEAEERIREEERRRELE
B10: GBRAP_52_6044 (protein)
chain: MRERLRELAERLVALVKAGDLEGARALAREIAEELNDEELRGLAEELAELAREGDPEEAEAVLEAAEILADELIEAGHDEALADEIEARVAAAAYERELE
B11: GBRAP_52_6115 (protein)
chain: MYEELKAKVEELLALVKAGKLEEARKRAEELVKSINDEEVKILAEAVAEVAKEAAPEDLDAVWTLAEMIAEALEKAGKPEELVDYLLSKTAAALYERELA
B12: GBRAP_160_4668 (protein)
chain: SEALEALMAEIRAIMDEAVEMMEGESLEERVAVARVMTGEVILLLEESPLATDEVIDYADELGEELVAWLRAHPDATPEEVRARLEEALARLREKLERES
B13: GBRAP_64_6487 (protein)
chain: MEEIEKLLKETLKKAEELVKLLENSSEELQEKAKEILKLIKESEKASLEEAAELLNEALKKLNELLKDPRLTEEQKDKVAELLDLVSELLWLVVEEELEK
B14: GBRAP_186_5374 (protein)
chain: SEELEEKIDEIIDRLEKEGYRVIVVETITELTEEEKEAIERDAEAVGELAKETGQKIALVIPFIGSEEEIEEAKKFVEELNEKFLKEYGVKIELAGLVKE
B15: GBRAP_52_6217 (protein)
chain: SAARARALAEEIVATVQTEGVDAATELLIKLAKELSPEELKLVFDELVALAAQASAETAEALLEAALKAEDALIEAGVSEADVADFIAALAAVAVAKRAA
B16: GBRAP_43_5738 (protein)
chain: DKEVLDAAAEVALLALESEELSDETKIRIIKDFLEVFADSGLKGEELAKKAAELLDNYENKENVKKAIELAKELAKLNPEYKETFEAIAEFLKKKLKELE
B17: GBRAP_53_6407 (protein)
chain: SEEEIRRLIEEIRRLAEEATKADEERQLELARRIVEALKRLKEAGASDEELTALAVEVARELKEAGASDRTLVVLAQGMQELGLDDATAAVSELIVEDLE
B18: GBRAP_137_3612 (protein)
chain: KKIVITFSEEDGVAIATIEADKDVDHEKLLELVEEVAKETGAKVVIAYSDEGDELIIDLVGDRETIVEAVRKLIKRLKEELGAEVELRSEGAEDLVEAVK
B19: GBRAP_43_5734 (protein)
chain: MEEVLDAAAETALLALESEELTDETKVRILRDFMEVAADESKENKELYKAAAEALARSDDAAAVKEAAKLAKELAAKDPKYKETLEAAAKYLEALLKELE
B20: GBRAP_78_6651 (protein)
chain: EVEELLEKALELVNEAAKLALKLPPEARLEVLDHLIDAATEIEEAIEEGGDLEHLKEALEHLKKAAEILKKLDTETAKELLKLVEEAIKLVEEAIKKLKE
B21: GBRAP_160_4469 (protein)
chain: SAEVKALVEELRKEVEEELEKLKDESPEQIANGVEVVVGSHLMEWSEAGKITDEQEDILIKAMDEIRKLAEEKKDASPEEVIKEIRKIIEKAAEEILKAS
B22: GBRAP_128_3346 (protein)
chain: VDEEKVAKAEELIEAMLTASPEEAKKLADELMELLLTMSLEEVEEVVKKALELLPKYTAEQLDILADALRKHRPLFTPEKAEVVAELQVEALNLAVEKEE
B23: GBRAP_11_2855 (protein)
chain: KKEKLKEIAELAKKAIELLKELLKKGVDDKELQKKIKELLEKLLELVKKYLDEASVKLAKEALESFKKSLEDPENKEKYINESLAFLEVLLGDVLLEIDE
B24: GBRAP_83_6898 (protein)
chain: KEKVVVVAPADRGEEAVDAAYDLEKEEGYEVELEIIATPEEFDLVEAAVERLAELGLEIPVTVVLRGATPEEAEALRARLEAIAARHGVNIPIEVILEEP
B25: GBRAP_160_4107 (protein)
chain: SAGLEAILKDFEEVLKEVLELWGEVSPEELAAYFETELGSVIMDAMENYGLSDETGDRLLDIVDKARERLLENGGKSLEEVKAILEETLEEIRKALEESD
B26: GBRAP_125_3074 (protein)
chain: ADAAALEDLALIARALGLSEGEVAELVRLAAASSLKQALIALLMAEGAEEAADAVAELTEAQAREVLAELAARLRAHPDLTKEEVIAAIKELAEAARAAA
B27: GBRAP_11_2704 (protein)
chain: KKEKLEEGAKLAEEAAKLVEELLEKGVDDEELRKELEKKLEELLKLTKKYGNEAEKKLAEIAYELWKEAQEDKENAEQYLKELLATLRVLEGQYLLEIEE
B28: GBRAP_52_6317 (protein)
chain: MKEEAEKLAEELVKLVKEGKEEEAKALAKKIAEEWSEEFIKLLAEVLAERIKTADEEERDALMEAAEILAEALEEAGWDPAFASDIIARAAKAAYEAELK
B29: GBRAP_160_4582 (protein)
chain: SAALEALKAAVDEEAEEAKKLVEGETAEQRANIVAVAGGRLIMEFSENPEVSDELLDRVDAIYDDLVATILANPNITDEEVKALIDKARDEIIAALDESF

Whole data set: some 4,500 sequences, median “median log2 fold change of GCK-ALFA target abundance (FLAG IP / Myc IP barcode read proportion)” near 0.078, cut for the lowest 2% near -0.6. The list shows a part of the results.

GABARAP, O95166, sequence (O95166 whole entry, the tested form may be a part): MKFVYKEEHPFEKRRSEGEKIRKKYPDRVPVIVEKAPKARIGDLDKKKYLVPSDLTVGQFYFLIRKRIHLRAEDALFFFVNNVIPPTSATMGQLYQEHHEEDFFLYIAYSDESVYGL

The assay addresses GABARAP, O95166. As to the kind of experiment: median log2 fold change of GCK-ALFA target abundance (FLAG IP / Myc IP barcode read proportion) (log2 ratio); each designed protein is fused to an ALFA-tag nanobody in HEK293 cells to bring the named protein to FLAG-tagged glucokinase (GCK); Myc marks an untargeted standard; higher = target protein stabilised (more abundant). The note with it: target protein: 3xFLAG-MCP-GCK-ALFA reporter; HEK293 landing pad (RPLP). Put shortly: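 Binders fused to an ALFA nanobody were recombined as a library into HEK293 landing-pad cells, which were induced with 2 μg mL^−1 doxycycline and then transfected to express a FLAG-tagged target and a Myc-tagged standard. After 48 h, circular RNA barcodes recovered by anti-FLAG and anti-Myc immunoprecipitation of lysates were reverse transcribed, amplified and sequenced. Each binder's target abundance is the median log2 ratio of FLAG to Myc barcode read proportions, from barcodes present at ≥10^−7 in both replicates, binders carrying ≥3 barcodes per replicate, a 10^−6 pseudocount and pooled replicates.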
Consider B1, for which the “median log2 fold change” value was determined as 0.0753. For the molecule B2, the “median log2 fold change” value is 0.0941. Turning to B3, the “median log2 fold change” value was -0.626. Regarding B4, the “median log2 fold change” value is 0.181. Under B5 stands 0.287; under B6, -0.0705; under B7, 0.13.

For B8, the “median log2 fold change” value was determined as 0.188.

B9: the “median log2 fold change” value is -0.135.

For the molecule B10, the “median log2 fold change” value is -0.000521. With B11, the “median log2 fold change” value turned out to be 0.0864. Take B12: the “median log2 fold change” value is -0.374. B13: the “median log2 fold change” value is 0.13.

B14: the “median log2 fold change” value was -0.0728.

Take B15: the “median log2 fold change” value worked out at 0.249. The value for B16 was -0.116; that for B17 was 0.205; that for B18 was -0.568. As for B19, the “median log2 fold change” value came to 0.151.

Consider B20, for which the “median log2 fold change” value is 0.136. The value for B21 was 0.254. Under B22 stands 0.131; under B23, 0.193; under B24, 0.191. The value for B25 was -0.108; that for B26 was 0.207. Regarding B27, the “median log2 fold change” value worked out at 0.375. The value for B28 was 0.323; that for B29 was -0.0806.
